# Reference: the supplement of paper PMC10037445
# The full ranking holds about 2,900 compounds; the median of “IRF Lucia reporter activity, fold change vs agonist alone” is about 0.9, and the highest 2% start at about 2.8. Some of the results follow.
# Assays:
# RAW-Dual [1] = test: IRF Lucia reporter activity, fold change vs agonist alone; higher = enhanced IRF activity; conditions: agonist: MPLA (TLR4) […]
# Outline: (§1)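 RAW-Dual macrophages were seeded in DMEM at 50,000 cells/well in 384-well plates, given 50 nL of library stock by pin tool, and given a PRR agonist 1 h later. Plates were held at 37 °C, 5% CO2 for 20 hours, after which supernatant was read for IRF by QuantiLuc luminescence and for NF-κB by QuantiBlue absorbance at 620 nm. Reporter activity is expressed as fold change over wells that received agonist alone. A well was called cytotoxic when IncuCyte confluency fell below 70% of agonist controls in both mask sets.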
# RAW-Dual [2] = test: IRF Lucia reporter activity, fold change vs agonist alone; cytotoxicity flag (confluency mask): not cytotoxic; higher = enhanced IRF activity
# Outline: as §1
# RAW-Dual [3] = test: IRF Lucia reporter activity, fold change vs agonist alone; cytotoxicity flag (confluency mask): cytotoxic (confluency <70% of control); higher = enhanced IRF activity
# Outline: as §1
# [4] = library stock concentration (final ~1000-fold dilution): 10 mM, cytotoxicity flag (confluency mask): not cytotoxic
# [5] = agonist: 3'3'-cGAMP (STING) 10 ug/mL
# [6] = library stock concentration (final ~1000-fold dilution): 10 mM, cytotoxicity flag (confluency mask): cytotoxic (confluency <70% of control)
smiles,measurement,setting,value
Cc1cccc(/C=N/Nc2cc(N3CCOCC3)nc(OCCc3ccccn3)n2)c1,IRF Lucia reporter activity,RAW-Dual [1]; [4],3.08
Cc1cccc(/C=N/Nc2cc(N3CCOCC3)nc(OCCc3ccccn3)n2)c1 (library stock concentration (final ~1000-fold dilution): 10 mM),IRF Lucia reporter activity,RAW-Dual [2]; [5],0.326
same,IRF Lucia reporter activity,RAW-Dual [2]; agonist: LPS (TLR4) 0.1 ug/mL,2.84
CC(Nc1cc(F)cc(F)c1)c1cc(C(=O)N(C)C)cc2c(=O)cc(N3CCOCC3)oc12 (stereo unspecified) (library stock concentration (final ~1000-fold dilution): 10 mM),IRF Lucia reporter activity,RAW-Dual [2]; [5],0.602
same,IRF Lucia reporter activity,RAW-Dual [2]; agonist: LPS (TLR4) 0.1 ug/mL,1.71
COc1cc(Nc2ncc(F)c(Nc3ccc4c(n3)NC(=O)C(C)(C)O4)n2)cc(OC)c1OC (library stock concentration (final ~1000-fold dilution): 10 mM),IRF Lucia reporter activity,RAW-Dual [3]; [5],0.0168
same,IRF Lucia reporter activity,RAW-Dual [3]; agonist: LPS (TLR4) 0.1 ug/mL,0.0234
COc1cc(Nc2ncc(F)c(Nc3ccc4c(n3)NC(=O)C(C)(C)O4)n2)cc(OC)c1OC,IRF Lucia reporter activity,RAW-Dual [1]; [6],0.022
O=C(O)CCC(=O)Nc1ccc(Br)cn1 (library stock concentration (final ~1000-fold dilution): 10 mM),IRF Lucia reporter activity,RAW-Dual [2]; [5],0.931
same,IRF Lucia reporter activity,RAW-Dual [2]; agonist: LPS (TLR4) 0.1 ug/mL,0.979
COc1ccc(C(=O)Nc2sc3c(c2C(N)=O)CCCC3)cc1OC (library stock concentration (final ~1000-fold dilution): 10 mM),IRF Lucia reporter activity,RAW-Dual [2]; [5],0.857
same,IRF Lucia reporter activity,RAW-Dual [2]; agonist: LPS (TLR4) 0.1 ug/mL,1.16
CC(=O)N1CCC(Nc2cc(C(=O)NCC(O)CN3CCc4ccccc4C3)ncn2)CC1 (stereo unspecified) (library stock concentration (final ~1000-fold dilution): 10 mM),IRF Lucia reporter activity,RAW-Dual [2]; [5],0.982
same,IRF Lucia reporter activity,RAW-Dual [2]; agonist: LPS (TLR4) 0.1 ug/mL,1.02
CC(=O)NO (library stock concentration (final ~1000-fold dilution): 10 mM),IRF Lucia reporter activity,RAW-Dual [2]; [5],1.02
same,IRF Lucia reporter activity,RAW-Dual [2]; agonist: LPS (TLR4) 0.1 ug/mL,1.17
CC(=O)NO,IRF Lucia reporter activity,RAW-Dual [1]; [4],1.04
CC(O)C(=O)O.CC(O)C(=O)O.CN1CCN(c2ccc3nc(-c4c(N)c5c(F)cccc5[nH]c4=O)[nH]c3c2)CC1 (library stock concentration (final ~1000-fold dilution): 10 mM),IRF Lucia reporter activity,RAW-Dual [3]; [5],0.0211
same,IRF Lucia reporter activity,RAW-Dual [3]; agonist: LPS (TLR4) 0.1 ug/mL,0.0308
CC(O)C(=O)O.CC(O)C(=O)O.CN1CCN(c2ccc3nc(-c4c(N)c5c(F)cccc5[nH]c4=O)[nH]c3c2)CC1,IRF Lucia reporter activity,RAW-Dual [1]; [6],0.0738
CC(N)(Cc1ccc(O)c(O)c1)C(=O)O (stereo unspecified),IRF Lucia reporter activity,"RAW-Dual [1]; library stock concentration (final ~1000-fold dilution): 2 mM, cytotoxicity flag (confluency mask): not cytotoxic",1.28
CC(N)(Cc1ccc(O)c(O)c1)C(=O)O (stereo unspecified) (library stock concentration (final ~1000-fold dilution): 2 mM),IRF Lucia reporter activity,RAW-Dual [2]; [5],1
same,IRF Lucia reporter activity,RAW-Dual [2]; agonist: LPS (TLR4) 0.1 ug/mL,0.972
COC(=O)C(CC(C)C)NC(=O)c1ccc(NCC(N)CS)cc1-c1cccc2ccccc12.O=C(O)C(F)(F)F (stereo unspecified) (library stock concentration (final ~1000-fold dilution): 10 mM),IRF Lucia reporter activity,RAW-Dual [2]; [5],0.0714
same,IRF Lucia reporter activity,RAW-Dual [2]; agonist: LPS (TLR4) 0.1 ug/mL,0.736
COC(=O)C(CC(C)C)NC(=O)c1ccc(NCC(N)CS)cc1-c1cccc2ccccc12.O=C(O)C(F)(F)F (stereo unspecified),IRF Lucia reporter activity,RAW-Dual [1]; [4],0.882
Cc1ccc(/C(=C\CN2CCCC2)c2cccc(/C=C/C(=O)O)n2)cc1,IRF Lucia reporter activity,RAW-Dual [1]; [4],1.02
Cc1ccc(/C(=C\CN2CCCC2)c2cccc(/C=C/C(=O)O)n2)cc1 (library stock concentration (final ~1000-fold dilution): 10 mM),IRF Lucia reporter activity,RAW-Dual [2]; [5],0.962
same,IRF Lucia reporter activity,RAW-Dual [2]; agonist: LPS (TLR4) 0.1 ug/mL,1.42
O=C(OC1OC2COC(=O)c3cc(O)c(O)c(O)c3-c3c(cc(O)c(O)c3O)C(=O)OC(C2O)C1O)c1cc(O)c(O)c(O)c1 (stereo unspecified) (library stock concentration (final ~1000-fold dilution): 10 mM),IRF Lucia reporter activity,RAW-Dual [2]; [5],0.767
same,IRF Lucia reporter activity,RAW-Dual [2]; agonist: LPS (TLR4) 0.1 ug/mL,0.769
O=Cc1ccc(O)c(O)c1 (library stock concentration (final ~1000-fold dilution): 10 mM),IRF Lucia reporter activity,RAW-Dual [2]; [5],0.613
same,IRF Lucia reporter activity,RAW-Dual [2]; agonist: LPS (TLR4) 0.1 ug/mL,1.13
COc1cc2ncc(-c3ccccc3)nc2cc1OC (library stock concentration (final ~1000-fold dilution): 10 mM),IRF Lucia reporter activity,RAW-Dual [2]; [5],0.506
same,IRF Lucia reporter activity,RAW-Dual [2]; agonist: LPS (TLR4) 0.1 ug/mL,0.722
COC(=O)c1sccc1S(=O)(=O)Nc1ccc(Nc2ccccc2)cc1OC,IRF Lucia reporter activity,RAW-Dual [1]; [4],0.834
COC(=O)c1sccc1S(=O)(=O)Nc1ccc(Nc2ccccc2)cc1OC (library stock concentration (final ~1000-fold dilution): 10 mM),IRF Lucia reporter activity,RAW-Dual [2]; [5],0.918
same,IRF Lucia reporter activity,RAW-Dual [2]; agonist: LPS (TLR4) 0.1 ug/mL,0.381
C=CC(=O)N1CCCC(n2nc(-c3ccc(Oc4ccccc4)cc3)c(C(N)=O)c2N)C1 (stereo unspecified) (library stock concentration (final ~1000-fold dilution): 10 mM),IRF Lucia reporter activity,RAW-Dual [2]; [5],0.185
same,IRF Lucia reporter activity,RAW-Dual [2]; agonist: LPS (TLR4) 0.1 ug/mL,0.786
CCC1(O)C(=O)OCc2c1cc1n(c2=O)Cc2cc3cc(O)ccc3nc2-1 (stereo unspecified) (library stock concentration (final ~1000-fold dilution): 10 mM),IRF Lucia reporter activity,RAW-Dual [2]; [5],0.975
same,IRF Lucia reporter activity,RAW-Dual [2]; agonist: LPS (TLR4) 0.1 ug/mL,0.604
same,IRF Lucia reporter activity,RAW-Dual [3]; [5],2.36
same,IRF Lucia reporter activity,RAW-Dual [3]; agonist: LPS (TLR4) 0.1 ug/mL,1.76
CCC1(O)C(=O)OCc2c1cc1n(c2=O)Cc2cc3cc(O)ccc3nc2-1 (stereo unspecified),IRF Lucia reporter activity,RAW-Dual [1]; [6],2.58
same,IRF Lucia reporter activity,RAW-Dual [1]; [4],1.03
